According to the supplement of paper PMC4967469:
The IC50 comes from the fitted curve, where viability falls to half of the control; a fit beyond the top or the lowest dose is shown as a bound at that dose. AUC sums up the same curve from the lowest dose to the 256-fold higher top dose; it is 1 without any effect and falls as sensitivity rises. For part of these data: The top dose, if marked as inferred, was calculated from the reported fits.

Tests used:
Experiment in all cases: Viability of human cancer cell lines after 72 h of drug (GDSC screen)
Temsirolimus = compound: CO[C@H]1C[C@@H]2CC[C@@H](C)[C@@](O)(O2)C(=O)C(=O)N2CCCC[C@H]2C(=O)O[C@H]([C@H](C)C[C@@H]2CC[C@@H](OC(=O)C(C)(CO)CO)[C@H](OC)C2)CC(=O)[C@H](C)/C=C(\C)[C@@H](O)[C@@H](OC)C(=O)[C@H](C)C[C@H](C)/C=C/C=C/C=C/1C [Temsirolimus]; details: top dose 0.2 µM
Protocol: (§1)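 Human cancer cell lines in 384-well plates, medium with 10% serum, drug for 72 h over a 256-fold dose range (nine 2-fold or five 4-fold steps up to the top dose). Adherent lines were fixed and stained with the nucleic acid dye Syto60, suspension lines read with resazurin; signal relative to control wells, capped at 0 and 100%. One two-parameter sigmoid per drug and line, fitted in a mixed model over all curves with the slope shared within a line.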

SL 0101-1 = compound: CC(=O)O[C@@H]1[C@@H](OC(C)=O)[C@@H](O)[C@H](Oc2c(-c3ccc(O)cc3)oc3cc(O)cc(O)c3c2=O)O[C@H]1C [SL 0101-1]; details: top dose 10 µM; top dose inferred
Protocol: as §1

XMD15-27 = compound: C=CC(=O)Nc1ccc(C(=O)c2sc(Nc3ccc(N4CCN(C)CC4)cc3OC)nc2N)cc1 [XMD15-27]; details: top dose 10.24 µM; top dose inferred
Protocol: as §1

Row | Cell Line | AUC (Temsirolimus) | IC50 (Temsirolimus) [µM] | AUC (SL 0101-1) | IC50 (SL 0101-1) [µM] | AUC (XMD15-27) | IC50 (XMD15-27) [µM]
1 | RL (B-cell lymphoma, suspension) | 0.669 | 0.0354 | 0.99 | > 10 | 0.99 | > 10.2
2 | RO82-W-1 (thyroid, adherent) | 0.777 | 0.104 | 0.961 | > 10 | 0.983 | > 10.2
3 | ROS-50 (B-cell leukaemia, suspension) | 0.922 | > 0.2 | 0.98 | > 10 | 0.985 | > 10.2
4 | RPMI-2650 (head and neck, adherent) | 0.712 | 0.0524 | 0.964 | > 10 | 0.985 | > 10.2
5 | RPMI-6666 (Hodgkin lymphoma, suspension) | 0.753 | 0.0793 | 0.969 | > 10 | 0.933 | > 10.2
6 | RPMI-7951 (melanoma, adherent) | 0.56 | 0.0181 | 0.98 | > 10 | 0.95 | > 10.2
7 | RPMI-8226 (myeloma, suspension) | 0.413 | 0.00749 | 0.958 | > 10 | 0.955 | > 10.2
8 | RPMI-8402 (T-cell lymphoblastic leukaemia, suspension) | 0.91 | > 0.2 | 0.99 | > 10 | 0.918 | > 10.2
9 | RPMI-8866 (chronic myeloid leukaemia, suspension) | 0.3 | 0.0036 | 0.933 | > 10 | 0.988 | > 10.2
10 | RT4 (bladder, adherent) | 0.925 | > 0.2 | 0.977 | > 10 | 0.986 | > 10.2
11 | RVH-421 (melanoma, adherent) | 0.73 | 0.0735 | 0.976 | > 10 | 0.949 | > 10.2
12 | RXF393 (kidney, adherent) | 0.559 | 0.0192 | 0.978 | > 10 | 0.909 | > 10.2
13 | Raji (Burkitt lymphoma, suspension) | 0.92 | > 0.2 | 0.987 | > 10 | 0.989 | > 10.2
14 | Ramos-2G6-4C10 (Burkitt lymphoma, suspension) | 0.059 | < 0.000781 | 0.974 | > 10 | 0.986 | > 10.2
15 | SAS (head and neck, adherent) | 0.913 | > 0.2 | 0.962 | > 10 | 0.976 | > 10.2
16 | SAT (head and neck, adherent) | 0.714 | 0.071 | 0.959 | > 10 | 0.973 | > 10.2
17 | SBC-1 (small cell lung carcinoma, suspension) | 0.915 | > 0.2 | 0.989 | > 10 | 0.988 | > 10.2
18 | SBC-3 (small cell lung carcinoma, adherent) | 0.727 | 0.0515 | 0.973 | > 10 | 0.894 | > 10.2

Row | Cell Line | AUC (Temsirolimus) | IC50 (Temsirolimus) [µM] | AUC (SL 0101-1) | IC50 (SL 0101-1) [µM] | AUC (XMD15-27) | IC50 (XMD15-27) [µM]
19 | SBC-5 (small cell lung carcinoma, adherent) | 0.779 | 0.0664 | 0.993 | > 10 | 0.993 | > 10.2
20 | SCC-9 (head and neck, adherent) | 0.965 | > 0.2 | 0.962 | > 10 | 0.967 | > 10.2
21 | SCC-25 (head and neck, adherent) | 0.826 | 0.143 | 0.982 | > 10 | 0.975 | > 10.2
22 | SCH (stomach, adherent) | 0.811 | 0.116 | 0.985 | > 10 | 0.988 | > 10.2
23 | SF126 (glioma, adherent) | 0.533 | 0.0154 | 0.986 | > 10 | 0.979 | > 10.2
24 | SF268 (glioma, adherent) | 0.783 | 0.0915 | 0.985 | > 10 | 0.975 | > 10.2
25 | SF295 (glioma, adherent) | 0.623 | 0.028 | 0.97 | > 10 | 0.985 | > 10.2
26 | SF539 (glioma, adherent) | 0.765 | 0.0662 | 0.986 | > 10 | 0.978 | > 10.2
27 | SH-4 (melanoma, adherent) | 0.792 | 0.155 | 0.975 | > 10 | 0.968 | > 10.2
28 | SHP-77 (small cell lung carcinoma, semi-adherent) | 0.973 | > 0.2 | 0.889 | 9.32 | 0.992 | > 10.2
29 | SIMA (neuroblastoma, adherent) | 0.94 | > 0.2 | 0.985 | > 10 | 0.978 | > 10.2
30 | SJRH30 (rhabdomyosarcoma, adherent) | 0.905 | > 0.2 | 0.984 | > 10 | 0.894 | > 10.2
31 | SJSA-1 (bone, adherent) | 0.744 | 0.0697 | 0.98 | > 10 | 0.984 | > 10.2
32 | SK-ES-1 (Ewing sarcoma, semi-adherent) | 0.797 | 0.101 | 0.963 | > 10 | 0.98 | > 10.2
33 | SK-GT-4 (oesophagus, adherent) | 0.506 | 0.013 | 0.98 | > 10 | 0.948 | > 10.2
34 | SK-HEP-1 (liver, adherent) | 0.853 | 0.14 | 0.987 | > 10 | 0.989 | > 10.2
35 | SK-LMS-1 (soft tissue, adherent) | 0.359 | 0.00521 | 0.987 | > 10 | 0.976 | > 10.2
36 | SK-MEL-1 (melanoma, suspension) | 0.985 | > 0.2 | 0.99 | > 10 | 0.993 | > 10.2
